For eight cell lines, AUC and IC50 results are on record in the supplement of paper PMC4967469.

A lower IC50 marks a more sensitive line; a limit (>, <) means that the fit lies beyond the doses tested. For AUC the same curve is integrated over the 256-fold range of doses and scaled to a fraction; the more sensitive the line, the further below 1. For some assays here: A top dose marked as inferred is not printed in the source and was worked back from the curve model.

What all share (assay): Viability of human cancer cell lines after 72 h of drug (GDSC screen)
Compound in one assay: C=C(c1ccc(C(=O)O)cc1)c1cc2c(cc1C)C(C)(C)CCC2(C)C [Bexarotene]
To be noted: top dose 8 µM. Here is the method: (§1)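 Human cancer cell lines in 384-well plates, medium with 10% serum, drug for 72 h over a 256-fold dose range (nine 2-fold or five 4-fold steps up to the top dose). Adherent lines were fixed and stained with the nucleic acid dye Syto60, suspension lines read with resazurin; signal relative to control wells, capped at 0 and 100%. One two-parameter sigmoid per drug and line, fitted in a mixed model over all curves with the slope shared within a line.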

Compound in the next assay: NC(=O)Nc1cc(-c2cccc(F)c2)sc1C(=O)N[C@H]1CCCNC1 [AZD7762]
The following applies: top dose 2 µM. Here is the method:
as §1

Compound in a further assay: COc1cc([C@@H]2c3cc4c(cc3[C@@H](O[C@@H]3O[C@@H]5CO[C@@H](C)O[C@H]5[C@H](O)[C@H]3O)[C@H]3COC(=O)[C@H]23)OCO4)cc(OC)c1O [Etoposide]
To be noted: top dose 16 µM. Here is the method: as §1

Compound in the next assay: O=C(O)c1ccc(-c2c[nH]c3ncc(-c4ccccc4)cc23)cc1C1CCCC1 [GSK-650394]
To be noted: top dose 16 µM; top dose inferred. Here is the method:
as §1

Compound in another assay: COc1cc(C(=O)NC2CCN(C)CC2)ccc1Nc1ncc2c(n1)N(C1CCCC1)C(C)CC(=O)N2C [NPK76-II-72-1]
The following applies: top dose 10.24 µM; top dose inferred. As to the method:
as §1

Compound in a further assay: COc1ccc(C(=O)CC2(O)C(=O)Nc3c(Cl)ccc(Cl)c32)cc1 [YK 4-279]
To be noted: top dose 10 µM. As to the method:
as §1

Compound in another assay: Oc1nc(-c2ccc(C(F)(F)F)cc2)nc2c1CSCC2 [XAV 939]
To be noted: top dose 5 µM; top dose inferred. Here is the method:
as §1

Compound in a further assay: Cc1ccc2nc(NCCN)c3ncc(C)n3c2c1 [BMS-345541]
To be noted: top dose 16 µM. Here is the method:
as §1

For orientation: IC50 means the concentration that inhibits the measured activity by half. Consider BHT-101 (thyroid, adherent), for which the AUC amounted to 0.973 with Bexarotene; 0.824 with AZD7762; 0.684 with Etoposide; 0.888 with GSK-650394; 0.965 with NPK76-II-72-1; 0.644 in the assay with YK 4-279. Also, the values for the AUC with XAV 939 and in the assay with BMS-345541 were 0.677 and 0.878, respectively. The IC50 in the assay with Bexarotene was over 8 µM; in the assay with AZD7762, 1.23 µM; in the assay with Etoposide, 3.33 µM; in the assay with GSK-650394 it was over 16 µM; in the assay with NPK76-II-72-1 it was over 10.2 µM; with YK 4-279, 1.58 µM. The IC50 was 0.993 µM in the assay with XAV 939 and over 16 µM with BMS-345541.
With BICR10 (head and neck, adherent), the AUC with Bexarotene worked out at 0.938; with AZD7762, 0.434; in the assay with Etoposide, 0.823; with GSK-650394, 0.978; with NPK76-II-72-1, 0.978; in the assay with YK 4-279, 0.714. The AUC in the assay with XAV 939 came to 0.966; with BMS-345541, 0.963. Besides, the IC50 is over 8 µM with Bexarotene; 0.0801 µM in the assay with AZD7762; 11.4 µM with Etoposide; over 16 µM with GSK-650394; over 10.2 µM with NPK76-II-72-1; 2.79 µM in the assay with YK 4-279. For the same cell line, the IC50 is over 5 µM with XAV 939 and over 16 µM with BMS-345541.
As to BICR22 (head and neck, adherent), the AUC with Bexarotene worked out at 0.95; with AZD7762, 0.738; with Etoposide, 0.904; with GSK-650394 it was 0.982; with NPK76-II-72-1 it was 0.967; with YK 4-279, 0.654. For the same cell line, the values for the AUC with XAV 939 and with BMS-345541 were 0.905 and 0.977, respectively. The IC50 with Bexarotene was over 8 µM; with AZD7762, 0.674 µM; with Etoposide, over 16 µM; with GSK-650394, over 16 µM; in the assay with NPK76-II-72-1, over 10.2 µM; with YK 4-279 it was 1.78 µM. Also, the IC50 in the assay with XAV 939 is over 5 µM; in the assay with BMS-345541, over 16 µM.
As to BICR78 (head and neck, adherent), the AUC was determined as 0.965 with Bexarotene; 0.525 in the assay with AZD7762; 0.696 in the assay with Etoposide; 0.976 with GSK-650394; 0.925 with NPK76-II-72-1; 0.638 in the assay with YK 4-279. In addition, the AUC stood at 0.967 in the assay with XAV 939 and 0.946 in the assay with BMS-345541. For the same cell line, the IC50 is over 8 µM with Bexarotene; 0.148 µM with AZD7762; 3.91 µM with Etoposide; over 16 µM with GSK-650394; over 10.2 µM in the assay with NPK76-II-72-1; 1.6 µM with YK 4-279. The IC50 in the assay with XAV 939 was over 5 µM; with BMS-345541 it was over 16 µM.
As to BL-41 (Burkitt lymphoma, suspension), the AUC is 0.989 with Bexarotene; 0.404 with AZD7762; 0.577 in the assay with Etoposide; 0.645 with GSK-650394; 0.581 in the assay with NPK76-II-72-1; 0.567 with YK 4-279. Moreover, the AUC in the assay with XAV 939 came to 0.994; with BMS-345541 it was 0.829. Besides, the IC50 with Bexarotene was over 8 µM; with AZD7762, 0.0728 µM; with Etoposide, 1.54 µM; in the assay with GSK-650394, 2.27 µM; with NPK76-II-72-1, 1.01 µM; in the assay with YK 4-279, 0.912 µM. The results for the IC50 with XAV 939 and in the assay with BMS-345541 were over 5 µM and 6.92 µM, respectively.
As to BT-20 (breast, adherent), the AUC in the assay with Bexarotene was 0.975; with AZD7762, 0.866; with Etoposide, 0.736; with GSK-650394, 0.962; with NPK76-II-72-1 it was 0.968; with YK 4-279 it was 0.821. The AUC with XAV 939 turned out to be 0.965; with BMS-345541, 0.907. The IC50 is over 8 µM in the assay with Bexarotene; over 2 µM in the assay with AZD7762; 5.65 µM in the assay with Etoposide; over 16 µM in the assay with GSK-650394; over 10.2 µM in the assay with NPK76-II-72-1; 7.66 µM with YK 4-279. Also, the IC50 with XAV 939 is over 5 µM; with BMS-345541 it was over 16 µM.
For the cell line BT-483 (breast, adherent), the AUC is 0.969 with Bexarotene; 0.949 with AZD7762; 0.946 with Etoposide; 0.975 in the assay with GSK-650394; 0.969 in the assay with NPK76-II-72-1; 0.966 in the assay with YK 4-279. In addition, the figures for the AUC with XAV 939 and with BMS-345541 were 0.975 and 0.917, respectively. Moreover, the IC50 with Bexarotene is over 8 µM; with AZD7762 it was over 2 µM; in the assay with Etoposide, over 16 µM; in the assay with GSK-650394, over 16 µM; in the assay with NPK76-II-72-1, over 10.2 µM; with YK 4-279 it was over 10 µM. The IC50 with XAV 939 was over 5 µM; in the assay with BMS-345541, over 16 µM.
Consider “BV-173 (chronic myeloid leukaemia, suspension)”, for which the AUC came out at 0.948 with Bexarotene; 0.431 in the assay with AZD7762; 0.742 in the assay with Etoposide; 0.709 with GSK-650394; 0.882 with NPK76-II-72-1; 0.574 with YK 4-279. Moreover, the AUC is 0.981 with XAV 939 and 0.836 with BMS-345541. Besides, the IC50 is over 8 µM in the assay with Bexarotene; 0.0828 µM with AZD7762; 4.44 µM with Etoposide; 3.57 µM with GSK-650394; 8.64 µM with NPK76-II-72-1; 0.972 µM with YK 4-279. The IC50 was over 5 µM in the assay with XAV 939 and 8.84 µM with BMS-345541.
